Structures can show the parent of a compound that is named as a salt. The full ranking holds about 1,900 compounds; the median of “cell viability of compound + 1 nM pemigatinib relative to pemigatinib-only (DMSO) wells” is about 0.95, and the lowest 2% start at about 0.22. The list shows a part of the results.
The compounds below were run on PDC-DUC18828 (assay: cell viability of compound + 1 nM pemigatinib relative to pemigatinib-only (DMSO) wells (fraction); PDC-DUC18828 is a patient-derived cholangiocarcinoma cell line; higher = less growth inhibition). Details: first compound 1 µM; pemigatinib concentration 1 nM; 72 h.
Experimental: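 Selleck Bioactive library screen in the patient-derived FGFR2 fusion-positive ICC cell line PDC-DUC18828 (500 cells/well). Each compound was tested at 1 uM with 1 nM pemigatinib, in triplicate, for 72 h. Viability was read by CellTiter-Glo and normalised to plate DMSO controls. Value is the paper's averaged normalised viability.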

Point of comparison: `CS(=O)(=O)CCNCc1ccc(-c2ccc3ncnc(Nc4ccc(OCc5cccc(F)c5)c(Cl)c4)c3c2)o1` + CCN1C(=O)N(c2c(F)c(OC)cc(OC)c2F)Cc2cnc3[nH]c(CN4CCOCC4)cc3c21 [pemigatinib], cell viability 0.903. Against it:
- Cn1c2ccccc2c2c3c(c4c5ccccc5n(CCC#N)c4c21)CNC3=O + CCN1C(=O)N(c2c(F)c(OC)cc(OC)c2F)Cc2cnc3[nH]c(CN4CCOCC4)cc3c21 [pemigatinib] — lower, 0.902
- O=C(NS(=O)(=O)c1ccc(Br)s1)c1ccc(Cl)cc1Cl [Tasisulam] + CCN1C(=O)N(c2c(F)c(OC)cc(OC)c2F)Cc2cnc3[nH]c(CN4CCOCC4)cc3c21 [pemigatinib] — higher, 1.01
- C/C(=N\NC(=O)c1cccc(S(=O)(=O)N2CCOCC2)c1)c1cc(Cl)ccc1O + CCN1C(=O)N(c2c(F)c(OC)cc(OC)c2F)Cc2cnc3[nH]c(CN4CCOCC4)cc3c21 [pemigatinib] — lower, 0.238
- Cn1ccnc1S [Methimazole] + CCN1C(=O)N(c2c(F)c(OC)cc(OC)c2F)Cc2cnc3[nH]c(CN4CCOCC4)cc3c21 [pemigatinib] — higher, 0.996
- Nc1c(Br)cc(Br)cc1CN[C@H]1CC[C@H](O)CC1 [Ambroxol HCl] + CCN1C(=O)N(c2c(F)c(OC)cc(OC)c2F)Cc2cnc3[nH]c(CN4CCOCC4)cc3c21 [pemigatinib] — lower, 0.882
- C=CC(=O)Nc1cccc(Nc2nc(Nc3ccc(N4CCN(C(C)=O)CC4)cc3OC)ncc2C(F)(F)F)c1 + CCN1C(=O)N(c2c(F)c(OC)cc(OC)c2F)Cc2cnc3[nH]c(CN4CCOCC4)cc3c21 [pemigatinib] — lower, 0.871
- CC(C)(Sc1cc(C(C)(C)C)c(O)c(C(C)(C)C)c1)Sc1cc(C(C)(C)C)c(O)c(C(C)(C)C)c1 [Probucol] + CCN1C(=O)N(c2c(F)c(OC)cc(OC)c2F)Cc2cnc3[nH]c(CN4CCOCC4)cc3c21 [pemigatinib] — higher, 1.04
- C/C=C1\NC(=O)[C@H]2CSSCC/C=C/[C@H](CC(=O)N[C@H](C(C)C)C(=O)N2)OC(=O)[C@H](C(C)C)NC1=O [Romidepsin (FK228, Depsipeptide)] + CCN1C(=O)N(c2c(F)c(OC)cc(OC)c2F)Cc2cnc3[nH]c(CN4CCOCC4)cc3c21 [pemigatinib] — lower, 0.035
- O=C(O)CC[C@H]1CC[C@@](c2cc(F)ccc2F)(S(=O)(=O)c2ccc(Cl)cc2)CC1 + CCN1C(=O)N(c2c(F)c(OC)cc(OC)c2F)Cc2cnc3[nH]c(CN4CCOCC4)cc3c21 [pemigatinib] — higher, 1.01
- COc1ccccc1N1CCN(CC(O)COc2cccc3ccccc23)CC1 (stereo not drawn) [Naftopidil] + CCN1C(=O)N(c2c(F)c(OC)cc(OC)c2F)Cc2cnc3[nH]c(CN4CCOCC4)cc3c21 [pemigatinib] — higher, 0.997
- COc1ccccc1N1CCN(CC(O)COc2cccc3ccccc23)CC1 (stereo not drawn) [Naftopidil DiHCl] + CCN1C(=O)N(c2c(F)c(OC)cc(OC)c2F)Cc2cnc3[nH]c(CN4CCOCC4)cc3c21 [pemigatinib] — higher, 0.957
- CN1CCC(=C2c3ccccc3CC(=O)c3sccc32)CC1 [Ketotifen Fumarate] + CCN1C(=O)N(c2c(F)c(OC)cc(OC)c2F)Cc2cnc3[nH]c(CN4CCOCC4)cc3c21 [pemigatinib] — higher, 0.907
- Nc1nc(N)c2nc(-c3cccc(O)c3)cnc2n1 + CCN1C(=O)N(c2c(F)c(OC)cc(OC)c2F)Cc2cnc3[nH]c(CN4CCOCC4)cc3c21 [pemigatinib] — lower, 0.843
- COc1ccc(CCNCc2ccc(OCc3ccc(Cl)nc3)c(OC)c2)cc1OC + CCN1C(=O)N(c2c(F)c(OC)cc(OC)c2F)Cc2cnc3[nH]c(CN4CCOCC4)cc3c21 [pemigatinib] — lower, 0.89
- CCOc1ccc(Cc2cc([C@@H]3O[C@H](SC)[C@@H](O)[C@H](O)[C@H]3O)ccc2Cl)cc1 [Sotagliflozin (LX4211)] + CCN1C(=O)N(c2c(F)c(OC)cc(OC)c2F)Cc2cnc3[nH]c(CN4CCOCC4)cc3c21 [pemigatinib] — higher, 1.03
- CC(C)(C)C(=O)OCOP(=O)(COCCn1cnc2c(N)ncnc21)OCOC(=O)C(C)(C)C [Adefovir Dipivoxil] + CCN1C(=O)N(c2c(F)c(OC)cc(OC)c2F)Cc2cnc3[nH]c(CN4CCOCC4)cc3c21 [pemigatinib] — lower, 0.696
- N#CC(c1ccc(Cl)cc1)c1c(Cl)cc(-n2ncc(=O)[nH]c2=O)cc1Cl (stereo not drawn) [Diclazuril] + CCN1C(=O)N(c2c(F)c(OC)cc(OC)c2F)Cc2cnc3[nH]c(CN4CCOCC4)cc3c21 [pemigatinib] — higher, 1.1
- COc1cc(OC)c(C(=O)CCCN2CCCC2)c(OC)c1 [Buflomedil HCl] + CCN1C(=O)N(c2c(F)c(OC)cc(OC)c2F)Cc2cnc3[nH]c(CN4CCOCC4)cc3c21 [pemigatinib] — higher, 0.967
- Cc1ccc(NC(=O)c2ccc(CN3CC[C@H](N(C)C)C3)c(C(F)(F)F)c2)cc1Nc1nccc(-c2cncnc2)n1 [Bafetinib (INNO-406)] + CCN1C(=O)N(c2c(F)c(OC)cc(OC)c2F)Cc2cnc3[nH]c(CN4CCOCC4)cc3c21 [pemigatinib] — higher, 0.913
- CCCCCCCCCCC[C@@H](C[C@@H]1OC(=O)[C@H]1CCCCCC)OC(=O)[C@H](CC(C)C)NC=O [Orlistat] + CCN1C(=O)N(c2c(F)c(OC)cc(OC)c2F)Cc2cnc3[nH]c(CN4CCOCC4)cc3c21 [pemigatinib] — higher, 1.05
- CC1(C)CCC(CN2CCN(c3ccc(C(=O)NS(=O)(=O)c4ccc(NCC5CCOCC5)c([N+](=O)[O-])c4)c(Oc4cnc5[nH]ccc5c4)c3)CC2)=C(c2ccc(Cl)cc2)C1 + CCN1C(=O)N(c2c(F)c(OC)cc(OC)c2F)Cc2cnc3[nH]c(CN4CCOCC4)cc3c21 [pemigatinib] — higher, 0.953
- CS(=O)(=O)c1cccc(CNc2nc(Nc3ccc4c(c3)CCC(=O)N4)ncc2C(F)(F)F)c1 + CCN1C(=O)N(c2c(F)c(OC)cc(OC)c2F)Cc2cnc3[nH]c(CN4CCOCC4)cc3c21 [pemigatinib] — higher, 0.997

Reference: the supplement of paper PMC9588766
